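A five-concentration, 48-hour dose response in 96-well plates underlies each endpoint, interpolated linearly between surrounding concentrations. GI50 marks 50% less growth.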 A number of entries come with more than one value. This list holds those alone. The source may hold further records. For some of these results: The tests behind the records often covered other concentration ranges, not given here; a value can be the end of its range. For some of these results: The values listed for one entry repeat one measurement in other runs, samples, wells, individuals or studies. Records carry a tag for their origin. Letters count within one entry.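 Definition used: TGI = concentration required for complete inhibition of growth.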
Legend:
Assay in all cases: growth of human tumour cells (NCI), 48 h
MDA-MB-231 breast = test system: MDA-MB-231 breast
UACC-62 melanoma = test system: UACC-62 melanoma
HCT-15 colon = test system: HCT-15 colon
RPMI-8226 leukemia = test system: RPMI-8226 leukemia
UO-31 renal = test system: UO-31 renal
SK-MEL-5 melanoma = test system: SK-MEL-5 melanoma
CAKI-1 renal = test system: CAKI-1 renal
NCI-H226 lung = test system: NCI-H226 lung
SN12C renal = test system: SN12C renal
LOX IMVI melanoma = test system: LOX IMVI melanoma
NCI/ADR-RES ovarian = test system: NCI/ADR-RES ovarian
BT-549 breast = test system: BT-549 breast
MCF7 breast = test system: MCF7 breast
KM12 colon = test system: KM12 colon
OVCAR-4 ovarian = test system: OVCAR-4 ovarian
SK-OV-3 ovarian = test system: SK-OV-3 ovarian
ACHN renal = test system: ACHN renal
HCC-2998 colon = test system: HCC-2998 colon
SR leukemia = test system: SR leukemia
T-47D breast = test system: T-47D breast

C/C(=C\c1csc(C)n1)[C@@H]1C[C@@H]2O[C@@H]2CCC[C@H](C)[C@H](O)[C@@H](C)C(=O)C(C)(C)[C@@H](O)CC(=O)O1
TGI (MDA-MB-231 breast): 108 nM and > 100 µM
TGI (UACC-62 melanoma): 447 nM and 25.3 µM
TGI (HCT-15 colon): 428 nM and 27.8 µM
TGI (RPMI-8226 leukemia): 4.64 nM and > 100 µM
TGI (UO-31 renal): 234 nM and > 100 µM
TGI (SK-MEL-5 melanoma): 188 nM and 11.9 µM
TGI (CAKI-1 renal): 319 nM and > 100 µM
TGI (NCI-H226 lung): 267 nM and > 100 µM
TGI (SN12C renal): 954 nM and > 100 µM
TGI (LOX IMVI melanoma): 250 nM and > 100 µM

CC[C@H](C)[C@H](NC(=O)[C@H]1CCCCN1C)C(=O)N(C)[C@H](C[C@@H](OC(C)=O)c1nc(C(=O)N[C@@H](Cc2ccccc2)C[C@H](C)C(=O)O)cs1)C(C)C
GI50 (UACC-62 melanoma): 0.151 nM and 1.65 nM
TGI (NCI/ADR-RES ovarian): 52.3 nM and 2.51 nM
TGI (BT-549 breast): 36.7 nM and < 1.65 nM
GI50 (MCF7 breast): 0.147 nM and 1.65 nM
TGI (KM12 colon): 43.4 nM and > 16.5 µM
GI50 (OVCAR-4 ovarian): 24.5 nM and 1.65 nM
TGI (SK-OV-3 ovarian): 27.8 nM and > 16.5 µM

CCCCCCCCCCCCCC[C@@H](O)[C@H]1CC[C@H]([C@H]2CC[C@H]([C@H](O)CCCCCC[C@@H](O)CC3=C[C@H](C)OC3=O)O2)O1
TGI (ACHN renal): 2.43 µM and > 25 µM

Cn1ncc(Cl)c1-c1cc(C(=O)N[C@H](CN)Cc2ccc(F)c(F)c2)oc1Cl
GI50 (HCC-2998 colon): 1.12 µM [sample A, mean of 2 tests] and 92.4 nM [sample B, mean of 2 tests]
GI50 (SR leukemia): 28.7 nM [sample A, 1 test] and 1.51 µM [sample B, 1 test]
TGI (T-47D breast): 235 nM [sample A, mean of 2 tests] and 3.22 µM [sample B, mean of 2 tests]

Cc1cc([N+](=O)[O-])c2ccccc2[n+]1[O-]
TGI (SR leukemia): > 42.8 µM [sample A, mean of 2 tests] and 3.29 µM [sample B, mean of 2 tests]

— PubChem BioAssay (NCI)
